{"source": "PubChem BioAssay AID485344", "about": "(National Center for Advancing Translational Sciences (NCATS), 2010)", "note": "Screen size: about 340,000 compounds; about 6,900 (2%) were called active. No stated cut-off is given here; in the data, active means inhibition above about 30%; inactive means below that, where a call was filed. This is a selection; strong and weak results do not stand in their true shares. Where no call is shown, the source filed none.", "data": [{"biological_target": "D(2) dopamine receptor (Homo sapiens) (UniProt P14416)", "sequence (P14416 whole entry, looked up)": "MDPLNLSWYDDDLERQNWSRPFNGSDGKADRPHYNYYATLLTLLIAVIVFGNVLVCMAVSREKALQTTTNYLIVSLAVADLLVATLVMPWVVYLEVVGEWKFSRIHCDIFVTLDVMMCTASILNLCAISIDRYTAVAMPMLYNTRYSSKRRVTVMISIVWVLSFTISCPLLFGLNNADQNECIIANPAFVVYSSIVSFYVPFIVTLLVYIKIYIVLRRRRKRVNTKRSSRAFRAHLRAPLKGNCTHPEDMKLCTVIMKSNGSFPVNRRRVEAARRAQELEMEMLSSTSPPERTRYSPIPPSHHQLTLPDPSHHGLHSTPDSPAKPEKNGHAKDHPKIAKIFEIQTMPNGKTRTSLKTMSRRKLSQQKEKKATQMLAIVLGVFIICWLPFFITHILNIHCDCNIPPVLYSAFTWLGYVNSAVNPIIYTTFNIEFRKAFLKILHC", "assay": "HTS Assay for Allosteric Antagonists of the Human D2 Dopamine Receptor: Primary Screen for Antagonists; further: 0% is about no effect", "conditions": "HEK293 TREx D2 cells, calcium flux, dopamine EC80; at 10 µM; stronger effect = higher value", "how_it_was_run": "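Cells plated overnight at 30 C with tetracycline; no-wash calcium dye, 30–90 min RT; 10 s baseline; compound pinned; 180 s read; EC80 dopamine added; another 180 s read.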", "values": [{"smiles": "CCN(C(=O)c1cn(CC(C)C)c(=O)c2cc(OC)c(OC)cc12)c1cc(OC)ccc1OC", "inhibition": "-14%"}, {"smiles": "CCc1ccc(C(=O)c2cn(CC(=O)Nc3cc(F)ccc3F)c3nc(C)ccc3c2=O)cc1", "inhibition": "-5.69%"}, {"smiles": "CCOC(=O)C1CCC(CN(Cc2ccc(OC)cc2)S(=O)(=O)c2ccc(F)c(C(=O)Nc3c(C)cccc3C)c2)CC1", "note": "(stereo unspecified)", "inhibition": "-13.9%"}, {"smiles": "Cc1ccccc1Nc1c(-c2ccccc2)nc2cccc(C)n12", "inhibition": "13.6%"}, {"smiles": "Cc1cc(F)ccc1NC(=O)CS(=O)(=O)c1cccc2nsnc12", "inhibition": "-9.52%"}, {"smiles": "CS(=O)(=O)Nc1ccccc1C(=O)OCc1cc(=O)n2nc(C3CCCCC3)sc2n1", "inhibition": "5.86%"}, {"smiles": "O=C(Cn1cnc2c(nc3n2CCCCC3)c1=O)Nc1ccc(F)c(Cl)c1", "inhibition": "-4.49%"}, {"smiles": "COc1ccc(CNc2nc(SCc3ccccc3Cl)nc3ccccc23)cc1", "inhibition": "24.2%"}, {"smiles": "CSc1ccc(CCNC(=O)c2cc3cc(S(=O)(=O)N4CCCCC4)ccc3n2C)cc1", "inhibition": "-0.476%"}, {"smiles": "O=C1/C(=C\\c2cc(Cl)c(O)c(Cl)c2)SC(=S)N1Cc1ccccc1", "inhibition": "active: 69.4%"}, {"smiles": "CCCOc1ccc(C(=O)Nc2ccc(NC(=O)c3ccccc3)c(C)c2)cc1", "inhibition": "1.93%"}, {"smiles": "Cc1cccc(CC(=O)NCc2nc3cccnc3n2Cc2ccc(F)cc2)c1", "inhibition": "14.1%"}, {"smiles": "CCc1cc(=O)[nH]c(SCc2nc(-c3ccccc3)no2)n1", "inhibition": "-8.06%"}, {"smiles": "Cc1nnc2c(N3CCN(c4ccccc4F)CC3)nc3ccc(C(=O)c4ccccc4)cc3n12", "inhibition": "-12.7%"}, {"smiles": "Cc1cccc(C(=O)NC2=NC(c3ccc(Cl)cc3)CC(=O)N2)c1", "note": "(stereo unspecified)", "inhibition": "-6.29%"}, {"smiles": "CCOC(=O)C(=CNc1ccc(OC)cc1[N+](=O)[O-])C(=O)OCC", "inhibition": "active: 31.3%"}, {"smiles": "COc1ccccc1NC(=O)c1sc2nc3c(cc2c1N)CN(Cc1ccccc1)CC3", "inhibition": "-3.57%"}, {"smiles": "Cc1ccccc1C(=O)NCC(=O)NNC(=O)CCN1CCN(c2ccccc2)CC1", "inhibition": "active: 72.1%"}, {"smiles": "Cc1cc(C(=O)CSc2nnc(-c3ccc(F)cc3)o2)c(C)n1CC1COc2ccccc2O1", "note": "(stereo unspecified)", "inhibition": "active: 41.2%"}, {"smiles": "COc1ccc(CC(=O)NCCS(=O)(=O)N2CCN(c3ccc(F)cc3)CC2)cc1OC", "inhibition": "0.89%"}, {"smiles": "COCCn1c(C)cc(O)c(C(c2ccc(F)cc2)N2CCN(c3ccccc3)CC2)c1=O", "note": "(stereo unspecified)", "inhibition": "7.91%"}, {"smiles": "O=C(CSc1nc(=O)[nH]c2c1CCCC2)NCc1ccc(F)cc1", "inhibition": "-1.91%"}, {"smiles": "CCc1nc(C)cn1S(=O)(=O)c1ccc(Cl)c(Cl)c1OC", "inhibition": "20.8%"}, {"smiles": "N#Cc1ccccc1Cn1cnc2nc3c(cc2c1=O)CCCC3", "inhibition": "23.6%"}, {"smiles": "COc1ccc2c(c1)c1c(c(=O)n(Cc3ccccc3)c(=O)n1CC(=O)NCc1ccccc1)n2C", "inhibition": "-3.57%"}, {"smiles": "O=C(Cn1cc(/C=N/O)c2ccccc21)N1CCOCC1", "inhibition": "active: 39.2%"}, {"smiles": "COc1ccc(CNCc2c(C(=O)O)n(Cc3ccc(F)cc3)c3cc(C)ccc23)cc1OC", "inhibition": "-22.4%"}, {"smiles": "CCC(=O)N1CCc2cc(Br)cc(S(=O)(=O)CCC(=O)Nc3cccc(C)c3C)c21", "inhibition": "23.5%"}, {"smiles": "CN(C)CCN(Cc1ccco1)C(=O)c1oc2ccccc2c1NC(=O)c1cccc(F)c1", "inhibition": "-2.65%"}, {"smiles": "CCOCCCNC(=O)c1ccc(-n2c(-c3ccccc3)cc3c2CCCCC3)cc1", "inhibition": "12.2%"}, {"smiles": "COc1ccc(Cn2c(=O)c3ccccc3n3c(-c4cccc(OC)c4OC)nnc23)cc1", "inhibition": "6.6%"}, {"smiles": "Cc1cccc(NC(=O)C2CCN(c3cnccn3)CC2)c1", "inhibition": "-6.02%"}, {"smiles": "CC1CCN(S(=O)(=O)c2ccc3c(c2)oc(=O)n3CC(=O)O)CC1", "inhibition": "-5.37%"}, {"smiles": "COc1ccc(CC(=O)Nc2ccc3nc(N4CCCCC4)cc(C)c3c2)cc1", "inhibition": "-28.6%"}, {"smiles": "CC1CCCN(CCOc2ccc(Br)cc2)C1", "note": "(stereo unspecified)", "inhibition": "active: 62.9%"}, {"smiles": "CCOC(=O)c1c(NC(C)=O)c2c3c(sc2n1Cc1nc(-c2ccccc2Cl)oc1C)CCCC3", "inhibition": "-9.81%"}, {"smiles": "CCOc1ccc(NC(=O)CCc2c(C)nc3cc(-c4ccc(Cl)cc4)nn3c2C)cc1", "inhibition": "-0.677%"}, {"smiles": "CC(C)CNS(=O)(=O)c1ccc(N2CCCCS2(=O)=O)cc1", "inhibition": "-20.4%"}, {"smiles": "CCCCCn1c(=O)[nH]c2cc(C(=O)NCc3ccccc3)ccc2c1=O", "inhibition": "0.529%"}, {"smiles": "Cc1ccc(CNC(=O)CS(=O)(=O)Cc2nc(-c3ccccc3C)oc2C)cc1", "inhibition": "-24.6%"}, {"smiles": "CCCOc1ccc(NC(=O)C(=O)NCCCN2CCOCC2)cc1", "inhibition": "-5.98%"}, {"smiles": "COc1ccc(CNC(=O)Cc2c(C)c3c(cc(C)c4c(C)c(C)oc43)oc2=O)cc1OC", "inhibition": "13.2%"}, {"smiles": "Cc1cccc(Cn2c(SCc3ccc(C(=O)NC4CCCC4)cc3)nc3ccncc32)c1", "inhibition": "7.72%"}, {"smiles": "Cc1cccc(-c2noc(CNC(=O)c3ccccc3Br)n2)c1", "inhibition": "-11.9%"}, {"smiles": "Cc1ccc(NC(=O)c2sc(-n3nc(C)c(Cc4ccc5c(c4)OCO5)c3C)nc2C)cc1Cl", "inhibition": "-6.12%"}, {"smiles": "Cc1cc(=O)oc2cc(OCC(=O)Nc3ccc(O)c(C(=O)O)c3)ccc12", "inhibition": "2.69%"}, {"smiles": "Oc1ccc(NCc2ccc(OCc3ccccc3)cc2)cc1", "inhibition": "5.99%"}, {"smiles": "CCOc1ccc(CC(=O)N2CCc3cc(OC)c(OC)cc3C2COc2ccc3c(C)cc(=O)oc3c2)cc1", "note": "(stereo unspecified)", "inhibition": "-7.93%"}, {"smiles": "Cc1ccc(NC(=O)Cn2c(=O)n(CC(=O)NCCc3ccccc3)c(=O)c3ccccc32)cc1C", "inhibition": "-17.3%"}, {"smiles": "CCCCc1nc(SCC(=O)Nc2ccc(S(N)(=O)=O)cc2)n[nH]1", "inhibition": "14.4%"}, {"smiles": "CCc1cccc(NC(=O)Nc2cn(C)c(=O)c3ccccc23)c1", "inhibition": "23.6%"}, {"smiles": "Cc1ccc(C(=O)COC(=O)c2cc(-c3cccs3)nc3ccccc23)cc1", "inhibition": "8.68%"}, {"smiles": "COc1cccc(NC(=O)C2CCN(S(=O)(=O)c3c(C)noc3C)CC2)c1", "inhibition": "-4.06%"}, {"smiles": "COc1ccc(-c2noc(CCC(=O)Nc3cccc(C)c3C)n2)cc1OC", "inhibition": "-2.57%"}, {"smiles": "Cc1ccc(S(=O)(=O)c2cn(CC(=O)Nc3ccc(F)cc3)c3cc4c(cc3c2=O)OCO4)cc1", "inhibition": "19.8%"}, {"smiles": "CC(C)OCCCNC(=O)Cc1ccc(NC(=O)N2CCCCc3ccccc32)cc1", "inhibition": "18.2%"}, {"smiles": "CCc1ccccc1NC(=O)Cn1c(=O)n(-c2cccc(C)c2)c(=O)c2c1c1cc(OC)ccc1n2C", "inhibition": "1.01%"}, {"smiles": "N#CC[C@H](Cc1ccccc1)N1CCN(CCc2ccccc2)CCC1=O", "inhibition": "active: 33.6%"}, {"smiles": "CCOC(=O)CC(NC(=O)c1cc2c(=O)n3cccc(C)c3nc2s1)c1ccc(OCC)c(OC)c1", "note": "(stereo unspecified)", "inhibition": "2.9%"}, {"smiles": "Cc1cc(C)c2nc(N3CCCC(C(=O)NCc4ccccc4F)C3)sc2c1", "note": "(stereo unspecified)", "inhibition": "-6.81%"}, {"smiles": "CCCn1cc(S(=O)(=O)c2ccc(C)c(C)c2)c(=O)c2cc(F)c(N3CCC(C)CC3)cc21", "inhibition": "0.731%"}, {"smiles": "CCn1c(=O)n(-c2ccc3c(c2)OCO3)c2nc(-c3cccc(OC)c3OC)nc(C(N)=O)c21", "inhibition": "-14.9%"}, {"smiles": "Cc1ccccc1C(=O)Nc1cc2c(cc1N1CCCCC1)n(C)c(=O)n2C", "inhibition": "12.5%"}, {"smiles": "COc1ccc(N2CCN(C(=O)c3ccc4c(c3)N(Cc3cccc(Cl)c3)C(=O)c3ccccc3S4(=O)=O)CC2)cc1", "inhibition": "-4.61%"}, {"smiles": "COc1ccc(C)cc1NC(=O)C(NCC(O)c1ccccc1)c1ccccc1", "note": "(stereo unspecified)", "inhibition": "active: 33.5%"}, {"smiles": "CCc1ccc(S(=O)(=O)Nc2ccc(N3CCN(C)CC3)cc2)cc1", "inhibition": "active: 75%"}, {"smiles": "O=C(Cn1c(=O)n(-c2ccc(Cl)cc2)c(=O)c2c3c(sc21)CCCCC3)Nc1cccc(Cl)c1", "inhibition": "20.4%"}, {"smiles": "O=C(c1cc2nc(-c3cccs3)cc(C(F)(F)F)n2n1)N1CCCc2ccccc21", "inhibition": "active: 31.2%"}, {"smiles": "O=C(NCc1cccc(Cl)c1)c1cc2c(s1)-c1ccccc1SC2", "inhibition": "3.05%"}, {"smiles": "COc1ccc(OCCOC(=O)c2ccc(F)c(S(=O)(=O)N3CCOCC3)c2)cc1", "inhibition": "active: 49.2%"}, {"smiles": "COc1cccc(CNS(=O)(=O)c2ccc3c(c2)CC(C)N3C(=O)C2CCC2)c1", "note": "(stereo unspecified)", "inhibition": "7.99%"}, {"smiles": "Cc1ccc2cccc(NC(=O)c3cccc4c(Br)cccc34)c2n1", "inhibition": "2.12%"}, {"smiles": "COc1ccc(C)cc1NC(=O)C(=O)NCC(c1cccnc1)N1CCN(c2ccccc2F)CC1", "note": "(stereo unspecified)", "inhibition": "12.8%"}, {"smiles": "Cc1ccc(C)c(NC(=O)CCOc2ccccc2)c1", "inhibition": "1.87%"}, {"smiles": "Cc1ccc2nc(-c3ccc(F)cc3)c(NC(C)(C)CC(C)(C)C)n2c1", "inhibition": "5.83%"}, {"smiles": "Cc1c(Cl)cccc1NC(=O)CSc1ccc(-c2ccccn2)nn1", "inhibition": "4.34%"}, {"smiles": "COc1ccc(N2CCN(C(=O)C3Cc4ccccc4N3C(C)=O)CC2)cc1", "note": "(stereo unspecified)", "inhibition": "-2.95%"}, {"smiles": "Cc1c(C)c2cc3c(c(C)c2oc1=O)OCN(CCc1ccccc1)C3", "inhibition": "2.28%"}, {"smiles": "Cc1cc(C)cc(N2CCn3c2nc2c3c(=O)n(C/C=C/c3ccccc3)c(=O)n2C)c1", "inhibition": "18.2%"}, {"smiles": "CCOc1cc(CNC(=O)C2CCN(c3nc4ccccc4[nH]3)CC2)cc(OCC)c1OCC", "inhibition": "4.02%"}, {"smiles": "Cc1ccc(C(=O)N/N=C\\c2cc3c(cc2Br)OCO3)s1", "inhibition": "active: 65.8%"}, {"smiles": "COc1cc(OC)c(NC(=O)N2CCC(CN3CCOCC3)CC2)cc1Cl", "inhibition": "-24.7%"}, {"smiles": "Cc1nc(-c2ccc(F)cc2)c(CC(=O)N2CCN(S(=O)(=O)c3cccc(Cl)c3)CC2)s1", "inhibition": "active: 34.1%"}, {"smiles": "CCc1cccc(NC(=O)CCc2c(C)nc3c(-c4ccccc4)c(C)nn3c2C)c1", "inhibition": "9.57%"}, {"smiles": "Cc1nn2c(=O)cc(COC(=O)c3ccccc3NC(=O)c3cccs3)nc2s1", "inhibition": "24.3%"}, {"smiles": "CCc1ccccc1NS(=O)(=O)c1ccc2c(c1)CCCN2C(=O)C1CCC1", "inhibition": "-3.85%"}, {"smiles": "CC(C)NC(=O)c1ccc2c(c1)N(Cc1cccc(Cl)c1)C(=O)c1ccccc1S2=O", "note": "(stereo unspecified)", "inhibition": "16.2%"}, {"smiles": "COc1ccc(NC(=O)CN2CCN(Cc3ccccc3Cl)S2(=O)=O)cc1Cl", "inhibition": "14.6%"}, {"smiles": "COCc1nnc(NC(=O)c2ccc(OC)cc2OC)s1", "inhibition": "active: 39.4%"}, {"smiles": "CCCN1C(=O)C(O)(CC(=O)c2ccc(C(C)C)cc2)c2ccccc21", "note": "(stereo unspecified)", "inhibition": "9.27%"}, {"smiles": "COC(=O)c1sc2c(c1C)c(=O)n(-c1ccccc1)c(=O)n2CC(=O)Nc1cccc(C)c1", "inhibition": "13.1%"}, {"smiles": "CC(C)c1ccc(NS(=O)(=O)c2cc(Br)cc3c2N(C(=O)C2CC2)CC3)cc1", "inhibition": "-1.02%"}, {"smiles": "COc1ccc(OC)c(-c2noc(N3CCN(c4ccc(Cl)cc4)CC3)n2)c1", "inhibition": "-16.2%"}, {"smiles": "Cn1cnc(S(=O)(=O)N2CCCC(C(=O)NCc3ccc(F)cc3)C2)c1", "note": "(stereo unspecified)", "inhibition": "19.9%"}, {"smiles": "Cc1ccc(S(=O)(=O)N(CCc2ccccc2)CC(=O)Nc2ccccc2C)cc1", "inhibition": "0.519%"}, {"smiles": "Cc1ccc(C(=O)N2CCn3c4c(c5cc(C)ccc53)CCCC42)cc1", "note": "(stereo unspecified)", "inhibition": "10%"}]}]}
